Reference: PubChem BioAssay AID488969 (Vanderbilt High Throughput Screening Facility, 2010)
Whole data set: some 110,000 compounds, median “z-score” near -0.1, cut for the highest 2% near 2. This is one part of the list.

Biological target: Metabotropic glutamate receptor 8 (Rattus norvegicus) (UniProt P70579)
Assay: rat mGluR8 modulators via GIRK flux, primary screen, cell-based, thallium flux, HTS (AID 488969)
Details: HEK293 rat mGluR8, GIRK (G protein-gated inwardly rectifying potassium channel) thallium flux, FluoZin2; at 10 µM; stronger effect = higher value; submaximal glutamate (EC20) added with thallium

UniProt P70579, sequence (P70579 whole entry, looked up): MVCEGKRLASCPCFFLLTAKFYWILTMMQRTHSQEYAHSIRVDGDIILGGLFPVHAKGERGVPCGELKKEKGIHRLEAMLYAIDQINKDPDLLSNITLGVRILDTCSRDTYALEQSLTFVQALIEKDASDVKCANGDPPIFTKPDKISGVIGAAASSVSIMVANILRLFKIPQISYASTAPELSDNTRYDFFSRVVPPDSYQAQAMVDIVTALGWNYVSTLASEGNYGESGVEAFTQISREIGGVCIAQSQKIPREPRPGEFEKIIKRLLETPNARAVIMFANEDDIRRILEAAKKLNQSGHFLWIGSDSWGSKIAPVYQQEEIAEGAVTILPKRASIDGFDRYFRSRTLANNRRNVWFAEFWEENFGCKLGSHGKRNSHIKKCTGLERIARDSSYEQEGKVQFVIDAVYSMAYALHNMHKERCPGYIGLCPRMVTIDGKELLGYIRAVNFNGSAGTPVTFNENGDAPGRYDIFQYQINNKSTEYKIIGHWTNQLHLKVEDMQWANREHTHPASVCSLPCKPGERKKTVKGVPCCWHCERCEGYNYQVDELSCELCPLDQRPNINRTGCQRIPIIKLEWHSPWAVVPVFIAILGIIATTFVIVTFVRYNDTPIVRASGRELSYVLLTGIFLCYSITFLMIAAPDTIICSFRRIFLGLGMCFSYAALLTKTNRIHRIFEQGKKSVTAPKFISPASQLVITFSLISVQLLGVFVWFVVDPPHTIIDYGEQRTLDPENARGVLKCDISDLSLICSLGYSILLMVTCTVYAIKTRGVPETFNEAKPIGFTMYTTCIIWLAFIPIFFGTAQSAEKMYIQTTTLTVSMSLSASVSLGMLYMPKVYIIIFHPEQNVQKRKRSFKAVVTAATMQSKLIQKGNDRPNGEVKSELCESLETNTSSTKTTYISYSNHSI

Row | SMILES | z-score
1 | CCOC(=O)/C=C1\SCC(=O)N1CC(=O)NC(C)c1ccc(F)cc1 (centres undefined) | -0.447
2 | COc1ccc(NC(=S)NCc2ccco2)cc1 | -0.0213
3 | C(#CCN1CCOCC1)COCCCOC(c1ccccc1)c1ccccc1 | -0.141
4 | Clc1ccc(-c2nnc(CSc3nnc(-c4cccs4)o3)o2)cc1 | -0.515
5 | O=C(NC1CCCCC1)c1ccccc1NC(=O)C1CC(=O)N(c2ccccc2)C1 (centres undefined) | -0.541
6 | Cn1c(=O)cc(N2CCCCC2)[nH]c1=O | 0.00323
7 | O=C(O)C1Nc2c(O)cccc2C2C=CCC12 (centres undefined) | 0.906
8 | CCOc1ccc(N2CC(C(=O)N3CCc4ccccc4C3)CC2=O)cc1 (centres undefined) | -0.119
9 | NC(=O)C1(N2CCCCC2)CCN(C2CC(=O)N(CCc3ccccc3)C2=O)CC1 (centres undefined) | -0.162
10 | Cc1cccc(N2CCN(C(c3ccccc3)c3nnnn3C(C)(C)C)CC2)c1C (centres undefined) | -0.194
11 | Cc1ccccc1Cn1c([N+](=O)[O-])cnc1C | -0.383
12 | CCOC(=O)/C(C#N)=C\c1ccc2c(c1)OCO2 | -0.308
13 | CCOc1ccc(C(C)(C)C)cc1S(=O)(=O)n1nc(C)cc1C | -0.716
14 | O=C(NN=C1CCCCCC1)NC1CCCCC1 | -0.019
15 | COc1ccc(CN(C(=O)/C=C/C(=O)c2ccc(OC)cc2O)C(C(=O)NC2CCCCC2)c2ccncc2)cc1 (centres undefined) | -0.182
16 | COCc1nnc(NS(=O)(=O)c2ccc(Br)cc2)s1 | -0.387
17 | CC(=O)Nc1ccc(OC(=O)c2c(-c3ccccc3Cl)noc2C)cc1 | -0.313
18 | Cc1ccc(C(=O)C(C)Oc2cccc(NC(=O)c3ccco3)c2)cc1 (centres undefined) | -1.92
19 | O=C(Nc1nnc(CSCc2ccccc2F)s1)c1cccc([N+](=O)[O-])c1 | 0.24
20 | O=S(=O)(CCc1nc2ccccc2s1)c1ccc(Cl)cc1 | -0.394
21 | CCn1c(SCc2nc3sc(C(=O)O)c(C)c3c(=O)[nH]2)nc2ccccc21 | -0.449
22 | O=C(NC1CCCCC1)N1CCN(Cc2nc3ccccc3c(=O)[nH]2)CC1 | 0.235
23 | COc1ccc(OC)c(NC(=O)C2CCC(CNc3c(N4CCC(C)CC4)c(=O)c3=O)CC2)c1 (centres undefined) | -0.749
24 | Cc1ccc(-c2nnc(SCC(=O)N/N=C/c3ccc(C)s3)n2-c2ccc(C)cc2)cc1 | -0.0175
25 | CCOC(=O)c1cccc(NC2c3ccccc3C(=O)N2Cc2ccco2)c1 (centres undefined) | -0.749
26 | CC(=O)CC1(O)C(=O)N(Cc2ccccc2)c2ccccc21 (centres undefined) | 0.034
27 | CCCCCNC(=O)c1ccc2c(=O)n(CCOC)c(=O)[nH]c2c1 | 0.336

Row | SMILES | z-score
28 | COC(=O)C1=C(N)Oc2cc(C)n(Cc3ccco3)c(=O)c2C1c1cccc(Cl)c1 (centres undefined) | 0.443
29 | O=C(Cn1cnc([N+](=O)[O-])n1)NCc1ccccc1 | 0.217
30 | CCCN1C(=O)/C(=C/c2c(NCCCOC(C)C)nc3c(C)cccn3c2=O)SC1=S | 0.133
31 | Cc1cc(F)ccc1NCc1cc2c(cc1[N+](=O)[O-])OCO2 | -0.139
32 | Cn1c2c(c(=O)n(C)c1=O)CN(CCc1ccccc1)CN2 | -0.0887
33 | C=CCN1C(=O)C(Cc2ccc(Br)cc2)S/C1=N\N=C\c1ccco1 (centres undefined) | -0.00121
34 | COc1ccc(CC(=O)NC(C)c2nnc(SCC(=O)c3ccc(Br)cc3)n2C)cc1 (centres undefined) | -0.222
35 | Cc1ccc(-n2c(=O)[nH]cc(C(=O)Nc3ccc4c(c3)OCCO4)c2=O)cc1 | 0.249
36 | CC(=O)Nc1ccc(OCC(O)CN2CCCCC2C)cc1 (centres undefined) | -0.276
37 | N#C/C(=C/c1ccc(Br)o1)C(N)=O | -0.516
38 | O=C(Oc1ccccc1/C=C\C(=O)c1cc2ccccc2o1)c1cccc(F)c1 | 1.04
39 | N#Cc1c(N2CCOCC2)nc(N2CCCCC2)c2c1CCN(C1CCCCC1)C2 | -0.913
40 | COc1ccc(CCNS(=O)(=O)c2ccc3c(c2)CCN3C(=O)C2CC2)cc1OC | -0.0638
41 | O=C(NCCCN1CCCC1=O)Nc1ccc(F)c(Cl)c1 | -0.0666
42 | Cc1cccc(NC(=O)CCN2CCOCC2)c1 | -0.113
43 | O=C(O)c1cc(C2CC2)nn1-c1ccccc1 | -0.0368
44 | CCN(CC)CCC(=O)NC(C)(C)Cc1ccc(O)cc1 | -1.17
45 | COc1ccccc1NC(=S)NC1CCC(CC2CCC(NC(=S)Nc3ccccc3OC)CC2)CC1 (centres undefined) | -0.0995
46 | CSc1ccccc1C(=O)NCc1ccc2c(c1)OCO2 | -0.296
47 | O=C(Nc1cc2c(oc1=O)CCCC2=O)c1ccc(Cl)cc1 | -0.285
48 | Cc1cc(C)nc(NC(=O)C(C)N2C(=O)c3ccccc3C2=O)n1 (centres undefined) | -0.586
49 | CCN1C/C(=C\c2cccc([N+](=O)[O-])c2)C(=O)/C(=C/c2cccc([N+](=O)[O-])c2)C1 | -0.328
50 | Cc1cc(NCCN2CCOCC2)n2c(nc3ccccc32)c1C#N | -0.377
51 | C=CCn1c(C)cc(C(=O)CSc2nc3ccccc3o2)c1C | 0.852
52 | CN(c1ccccc1)S(=O)(=O)c1ccc(C(=O)OCC(=O)NCc2ccco2)cc1 | -0.166
53 | C/C(=N\NC(=O)C1COc2ccccc2O1)c1ccccn1 (centres undefined) | -0.0325
54 | CNC(=O)COC(=O)c1ccc(NC(=O)CC#N)cc1 | 0.11
